Measured values from PubChem BioAssay AID360 (National Center for Advancing Translational Sciences (NCATS), 2006).
Among all 48,000 compounds or so, about 550 (1.1%) were called active. Inconclusive results (about 4%) are left out. No stated cut-off is given here; in the data, active means potency below about 15 µM; inconclusive means mostly about 16 µM to 33 µM; inactive means weaker than that. Some of the results follow.

What follows are molecules tested against Lysosomal acid glucosylceramidase (Homo sapiens) (UniProt P04062) (assay: Glucocerebrosidase). Conditions: purified enzyme, resorufin glucoside fluorescence (screen aimed at inhibitors), 20 min; series mostly up to 77 µM.
Sequence of UniProt P04062 (P04062 whole entry, looked up): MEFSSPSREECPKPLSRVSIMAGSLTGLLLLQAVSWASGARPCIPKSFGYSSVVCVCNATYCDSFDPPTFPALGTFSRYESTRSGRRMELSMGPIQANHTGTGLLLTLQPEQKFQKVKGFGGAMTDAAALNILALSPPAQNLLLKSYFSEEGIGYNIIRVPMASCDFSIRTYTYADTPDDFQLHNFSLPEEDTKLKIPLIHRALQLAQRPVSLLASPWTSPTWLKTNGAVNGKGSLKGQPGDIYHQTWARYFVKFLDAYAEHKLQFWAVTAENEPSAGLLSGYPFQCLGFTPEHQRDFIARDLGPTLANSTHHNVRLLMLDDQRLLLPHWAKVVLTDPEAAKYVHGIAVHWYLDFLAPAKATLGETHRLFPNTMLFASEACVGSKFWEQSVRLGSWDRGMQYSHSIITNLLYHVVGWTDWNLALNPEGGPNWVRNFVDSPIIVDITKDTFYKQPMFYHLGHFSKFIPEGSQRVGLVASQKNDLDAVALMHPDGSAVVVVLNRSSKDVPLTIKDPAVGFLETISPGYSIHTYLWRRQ
Summary of the method: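 Normal human glucocerebrosidase (0.2 nM final) was assayed with resorufin β-D-glucopyranoside (30 uM final) in 50mM citric acid/KH2PO4, 10mM sodium taurocholate, 0.01% tween-20, pH 5.9. Compounds were titrated; fluorescence (Ex 548, Em 600) read after 20 min at RT.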
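Further: the screen sought inhibitors.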
Potency means the concentration at half of the fitted maximal effect.

Potency, inactive:
COc1ccc(C2N=C(Nc3ccc(C)cc3)Nc3nc(C)cc(=O)n32)cc1 (configuration not stated) > 76.9 µM, COc1ccc(C2CC(=O)c3c([nH]c(C(=O)OC(C)C)c3C)C2)cc1OC (configuration not stated) > 76.9 µM, O=C(C1CCN(S(=O)(=O)N2CCC3(CC2)OCCO3)CC1)N1CCC(Cc2ccccc2)CC1 > 76.9 µM, CCCc1cc(=O)[nH]c(/N=C(/NC(=O)c2ccccc2)Nc2ccc3c(c2)OCCO3)n1 > 76.9 µM, Cc1ccc(P(=O)(CC(=O)O)c2ccc(C)cc2)cc1 > 76.9 µM, O=C(O)C1C2C=CC(C2)C1C(=O)NCCc1ccccc1 (configuration not stated) > 76.9 µM, CCOC(=O)C1CCN(C(=O)COc2ccc(S(=O)(=O)NC(C)C)cc2)CC1 > 76.9 µM, CCn1cc(C(=O)NCc2cccs2)c(=O)c2cc(S(=O)(=O)N3CCOCC3)ccc21 > 76.9 µM, O=C(NCc1ccccc1)c1cc(S(=O)(=O)N2CCC3(CC2)OCCO3)ccc1F > 76.9 µM, N#CCCN(CCC#N)C(=O)COc1ccc(Cl)cc1Cl > 76.9 µM, CC1Cc2ccccc2N1C(=O)Cc1cccs1 (configuration not stated) > 76.9 µM, CCOc1ccc2nc(NC(=O)COC)sc2c1 > 76.9 µM, CCN1C(=O)N(CC)C2C1N(C(C)=O)C(=O)N2C(C)=O (configuration not stated) > 76.9 µM, CCOc1cccc(-c2cc(=O)[nH][nH]2)c1 > 76.9 µM, NC(=O)CSc1nnc(Cn2c(=O)sc3ccccc32)n1-c1cccc(Cl)c1 > 76.9 µM, CCC(C)(C)NC(=O)C(c1ccc(F)cc1)N(Cc1ccco1)C(=O)c1cnccn1 (configuration not stated) > 76.9 µM, O=C(c1nc(-c2ccccc2)n(-c2ccccc2)n1)N1CCN(S(=O)(=O)c2ccccc2)CC1 > 76.9 µM, COc1ccc(OC)c(C2/C(=C(\O)c3c(C)nc4ccccn34)C(=O)C(=O)N2CCCN(C)C)c1 (configuration not stated) > 76.9 µM, CCN(CC)CCCC(C)NC1=NCCCCC1 (configuration not stated) > 76.9 µM, COc1ccc(OC)c(C(c2nnnn2CC2CCCO2)N2CCN(C3CCCC3)CC2)c1 (configuration not stated) > 76.9 µM, CCCNC(=O)c1[nH]c(C)c(C(C)=O)c1C > 76.9 µM, CCC(C)(C)NC(=O)C(c1cccc(OC)c1)N(C(=O)c1ccn[nH]1)c1cccc(OC)c1 (configuration not stated) > 76.9 µM, O=C(NCc1ccc(Cl)cc1)c1cc(-c2cccs2)on1 > 76.9 µM, CCOCCCNC(=O)C(c1ccc(OC)cc1)N(Cc1ccc2c(c1)OCO2)C(=O)CNC(C)=O (configuration not stated) > 76.9 µM, Cc1oc(-c2cccc(Cl)c2)nc1CN1CCC(C(=O)NCc2cccnc2)CC1 > 76.9 µM, O=C(COC(=O)c1ccccn1)Nc1cccc(Cl)c1 > 76.9 µM, COC(=O)c1ccc(NC(=O)C2CC(=O)N(c3cc(C)ccc3C)C2)cc1 (configuration not stated) > 76.9 µM, N#CC(C(=O)c1ccco1)c1ccccn1 (configuration not stated) > 76.9 µM, O=C(C1=C(O)C(=O)N(Cc2ccccc2)C1c1cccnc1)c1ccco1 (configuration not stated) > 76.9 µM, O=C(CSc1nnnn1C1CCCCC1)NCc1cccc(C(=O)O)c1 > 76.9 µM, COc1ccccc1-n1c(CNc2c(C)cccc2C)nnc1SCC(=O)N1CCOCC1 > 76.9 µM, Cc1nnc(SCC(=O)N2CCc3ccccc32)s1 > 76.9 µM, CCn1cc(C(=O)NCCCOC)c2cc(OC)c(OC)cc2c1=O > 76.9 µM, COc1cc(-c2nnc(-c3ccc(N4CCOCC4)cc3)o2)cc(OC)c1OC > 76.9 µM, Cc1cc(=O)oc(C)c1C(=O)NCc1c(F)cc(F)cc1F > 76.9 µM, CCC(=O)c1cc(-c2nc3ccccc3n2C)n(C)c1 > 76.9 µM, OC(COc1ccc2ccccc2c1)CN1CCCC1 (configuration not stated) > 76.9 µM, Cc1cccc(C)c1NC(=O)c1cc(S(=O)(=O)N2CCOCC2)ccc1F > 76.9 µM, CCN1CCN(Cc2c(C)[nH]c3ccc(OC)cc3c2=O)CC1 > 76.9 µM, CCOc1ccc2oc(C(=O)OCC(=O)NC(=O)NC3CCCC3)c(C)c2c1 > 76.9 µM, COc1ccc(-c2nnc(Nc3nc4c(OC)cccc4s3)o2)cc1 > 76.9 µM, Cc1nc(CCNC(=O)Cc2ccccc2)cs1 > 76.9 µM, COc1ccc(C2CC(=O)c3cnc(NC(=O)c4ccccc4OC)nc3C2)c(OC)c1 (configuration not stated) > 76.9 µM, Fc1ccc(N2CCN(C(c3cccs3)c3nnnn3CCc3ccccc3)CC2)cc1 (configuration not stated) > 76.9 µM, CSc1nc(N)nc(SC2C=CCCC2)c1C#N (configuration not stated) > 76.9 µM, Cc1ccc2[nH]c(=O)c(C(c3nnnn3CC3CCCO3)N3CCOCC3)cc2c1 (configuration not stated) > 76.9 µM, CC(=O)Nc1ccc(C(=O)OCC(=O)NC(=O)NC2CCCCC2)cc1 > 76.9 µM, CCN(CC)CCN1C(=O)C(=O)/C(=C(/O)c2ccncc2)C1c1ccccc1F (configuration not stated) > 76.9 µM, N#Cc1nc(-c2cccs2)oc1NCc1ccco1 > 76.9 µM, COc1ccc(-n2c(C)cc(C(=O)CSc3nn4c(=O)c(C(C)(C)C)nnc4s3)c2C)cc1 > 76.9 µM, C=CCn1c(=N)n(CC(=O)O)c2ccccc21 > 76.9 µM, COc1ccc2c(c1)C(NC(C)=O)C(=O)N2C (configuration not stated) > 76.9 µM, CC(C)c1nc(=S)n(-c2ccccc2)[nH]1 > 76.9 µM, COc1ccc(Nc2nccc3c2nnn3C)cc1 > 76.9 µM, CCOC(=O)CSc1n[nH]c(-c2cccnc2)n1 > 76.9 µM, CCN(CC)CCCN1C(=O)C(O)=C(C(=O)c2ccco2)C1c1ccc(OC(C)C)cc1 (configuration not stated) > 76.9 µM, COCCCn1c(CCC(=O)O)ccc1-c1cccs1 > 76.9 µM
